This is an account of results in publication PMC7758049.

For assay [1], the target named is T1, GAL4BD-c-myc-DHR1-R563M, D566Y, E831K, F837L (S. cerevisiae) (UniProt Q04217).
T1 sequence: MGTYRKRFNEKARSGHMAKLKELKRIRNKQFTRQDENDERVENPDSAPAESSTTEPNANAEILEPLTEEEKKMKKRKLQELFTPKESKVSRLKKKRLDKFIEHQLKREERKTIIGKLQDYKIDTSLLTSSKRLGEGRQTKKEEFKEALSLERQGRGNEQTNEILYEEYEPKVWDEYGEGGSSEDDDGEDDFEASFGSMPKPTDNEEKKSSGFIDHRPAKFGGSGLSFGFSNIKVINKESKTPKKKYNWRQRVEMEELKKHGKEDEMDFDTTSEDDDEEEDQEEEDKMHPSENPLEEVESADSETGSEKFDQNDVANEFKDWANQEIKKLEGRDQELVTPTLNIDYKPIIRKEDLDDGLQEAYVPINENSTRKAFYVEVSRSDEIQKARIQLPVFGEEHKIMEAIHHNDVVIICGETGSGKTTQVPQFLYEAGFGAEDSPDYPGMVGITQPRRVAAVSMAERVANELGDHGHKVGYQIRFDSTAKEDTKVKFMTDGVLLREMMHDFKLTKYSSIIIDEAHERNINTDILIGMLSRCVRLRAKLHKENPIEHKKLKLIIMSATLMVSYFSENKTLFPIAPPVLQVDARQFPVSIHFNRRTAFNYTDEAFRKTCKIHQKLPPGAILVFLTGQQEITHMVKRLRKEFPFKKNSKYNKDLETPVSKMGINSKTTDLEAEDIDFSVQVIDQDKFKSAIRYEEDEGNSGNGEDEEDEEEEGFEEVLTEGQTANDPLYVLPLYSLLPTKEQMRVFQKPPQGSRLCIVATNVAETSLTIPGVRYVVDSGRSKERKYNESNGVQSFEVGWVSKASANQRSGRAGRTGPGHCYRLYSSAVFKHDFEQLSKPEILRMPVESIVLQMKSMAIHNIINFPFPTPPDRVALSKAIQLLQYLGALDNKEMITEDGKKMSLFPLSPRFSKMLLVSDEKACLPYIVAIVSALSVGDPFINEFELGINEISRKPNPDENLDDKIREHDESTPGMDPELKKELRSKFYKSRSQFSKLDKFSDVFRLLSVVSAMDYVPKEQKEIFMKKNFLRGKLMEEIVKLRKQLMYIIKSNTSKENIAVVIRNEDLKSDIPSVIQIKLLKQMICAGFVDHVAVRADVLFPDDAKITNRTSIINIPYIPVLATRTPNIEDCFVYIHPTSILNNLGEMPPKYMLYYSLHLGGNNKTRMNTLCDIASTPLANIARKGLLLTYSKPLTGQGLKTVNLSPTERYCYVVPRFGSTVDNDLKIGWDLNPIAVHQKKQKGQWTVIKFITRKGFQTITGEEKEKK
The experiment in a line: two-hybrid; AD-HA-Utp14 with BD-myc-Dhr1 (wild type or mutant); growth on SD-Leu-Trp-His- with 10 mM 3AT.

The target in assay [2] is T2, BD-myc-Dhr1 (S. cerevisiae) (UniProt Q04217).
T2 sequence: T1 sequence with M563R, Y566D, K831E, L837F
Described as above.

Substitutions are numbered along the chain they refer to. No constants are given. Whether binding was seen depends on the method and setting. Some binding calls cover weakened binding; strength is not graded here. Where a sequence is shown, tags or fusion partners need not be part of it.

B1: AD-HA-Utp14 (protein, UniProt Q04500 1-899)
chain: MAKKKSKSRSKSSRRVLDALQLAEREINGEFDNSSDNDKRHDARRNGTVVNLLKRSKGDTNSDEDDIDSESFEDEELNSDEALGSDDDYDILNSKFSQTIRDKKENANYQEEEDEGGYTSIDEEDLMPLSQVWDMDEKTAQSNGNDDEDASPQLKLQDTDISSESSSSEESESESEDDEEEEDPFDEISEDEEDIELNTITSKLIDETKSKAPKRLDTYGSGEANEYVLPSANAASGASGKLSLTDMMNVIDDRQVIENANLLKGKSSTYEVPLPQRIQQRHDRKAAYEISRQEVSKWNDIVQQNRRADHLIFPLNKPTEHNHASAFTRTQDVPQTELQEKVDQVLQESNLANPEKDSKFEELSTAKMTPEEMRKRTTEMRLMRELMFREERKARRLKKIKSKTYRKIKKKELMKNRELAAVSSDEDNEDHDIARAKERMTLKHKTNSKWAKDMIKHGMTNDAETREEMEEMLRQGERLKAKMLDRNSDDEEDGRVQTLSDVENEEKENIDSEALKSKLGKTGVMNMAFMKNGEAREREANKETLRQLRAVENGDDIKLFESDEEETNGENIQINKGRRIYTPGSLESNKDMNELNDHTRKENKVDESRSLENRLRAKNSGQSKNARTNAEGAIIVEEESDGEPLQDGQNNQQDEEAKDVNPWLANESDEEHTVKKQSSKVNVIDKDSSKNVKAMNKMEKAELKQKKKKKGKSNDDEDLLLTADDSTRLKIVDPYGGSDDEQGDNVFMFKQQDVIAEAFAGDDVVAEFQEEKKRVIDDEDDKEVDTTLPGWGEWAGAGSKPKNKKRKFIKKVKGVVNKDKRRDKNLQNVIINEKVNKKNLKYQSSAVPFPFENREQYERSLRMPIGQEWTSRASHQELIKPRIMTKPGQVIDPLKAPFK
As to B1, the binding entry is given as “no binding” in assay [1] and “binds” in assay [2].
